{"source": "paper PMC9911399", "about": "“Two distinct binding modes provide the RNA-binding protein RbFox with extraordinary sequence specificity”", "binders": {"B1": {"name": "CGCCCAC (DNA:RNA)", "RNA": "GGGAGACCGGAAUUCAGAUUGUCCCGCCCACUUAAAUCCCGUCGUAGCCACCA", "DNA 1": "CAATCTGAATTCCGGTCTCCC", "DNA 2": "TGGTGGCTACGACGGGATT"}, "B2": {"name": "AGGCCGC (DNA:RNA)", "RNA": "B1 RNA with C25A, C27G, A30G", "DNA 1": "CAATCTGAATTCCGGTCTCCC", "DNA 2": "TGGTGGCTACGACGGGATT"}, "B3": {"name": "GGCCCAG (DNA:RNA)", "RNA": "B1 RNA with C25G, C31G", "DNA 1": "CAATCTGAATTCCGGTCTCCC", "DNA 2": "TGGTGGCTACGACGGGATT"}, "B4": {"name": "CACCUAU (DNA:RNA)", "RNA": "B1 RNA with G26A, C29U, C31U", "DNA 1": "CAATCTGAATTCCGGTCTCCC", "DNA 2": "TGGTGGCTACGACGGGATT"}, "B5": {"name": "UGUUUUC (DNA:RNA)", "RNA": "B1 RNA with C25U, C27U, C28U, C29U, A30U", "DNA 1": "CAATCTGAATTCCGGTCTCCC", "DNA 2": "TGGTGGCTACGACGGGATT"}, "B6": {"name": "AAUCCUC (DNA:RNA)", "RNA": "B1 RNA with C25A, G26A, C27U, A30U", "DNA 1": "CAATCTGAATTCCGGTCTCCC", "DNA 2": "TGGTGGCTACGACGGGATT"}, "B7": {"name": "UUAAGGG (DNA:RNA)", "RNA": "GGGAGACCGGAAUUCAGAUUGUCCUUAAGGGUUAAAUCCCGUCGUAGCCACCA", "DNA 1": "CAATCTGAATTCCGGTCTCCC", "DNA 2": "TGGTGGCTACGACGGGATT"}, "B8": {"name": "UUCUACC (DNA:RNA)", "RNA": "B1 RNA with C25U, G26U, C28U, C29A, A30C", "DNA 1": "CAATCTGAATTCCGGTCTCCC", "DNA 2": "TGGTGGCTACGACGGGATT"}, "B9": {"name": "ACUGCUC (DNA:RNA)", "RNA": "B1 RNA with C25A, G26C, C27U, C28G, A30U", "DNA 1": "CAATCTGAATTCCGGTCTCCC", "DNA 2": "TGGTGGCTACGACGGGATT"}, "B10": {"name": "UCCGUUG (DNA:RNA)", "RNA": "B7 RNA with U26C, A27C, A28G, G29U, G30U", "DNA 1": "CAATCTGAATTCCGGTCTCCC", "DNA 2": "TGGTGGCTACGACGGGATT"}, "B11": {"name": "CGUACGU (DNA:RNA)", "RNA": "B1 RNA with C27U, C28A, A30G, C31U", "DNA 1": "CAATCTGAATTCCGGTCTCCC", "DNA 2": "TGGTGGCTACGACGGGATT"}, "B12": {"name": "GGGCGCA (DNA:RNA)", "RNA": "B1 RNA with C25G, C27G, C29G, A30C, C31A", "DNA 1": "CAATCTGAATTCCGGTCTCCC", "DNA 2": "TGGTGGCTACGACGGGATT"}, "B13": {"name": "AACAGAC (DNA:RNA)", "RNA": "B1 RNA with C25A, G26A, C28A, C29G", "DNA 1": "CAATCTGAATTCCGGTCTCCC", "DNA 2": "TGGTGGCTACGACGGGATT"}, "B14": {"name": "GGCCAGG (DNA:RNA)", "RNA": "B1 RNA with C25G, C29A, A30G, C31G", "DNA 1": "CAATCTGAATTCCGGTCTCCC", "DNA 2": "TGGTGGCTACGACGGGATT"}, "B15": {"name": "GGCGGUG (DNA:RNA)", "RNA": "B1 RNA with C25G, C28G, C29G, A30U, C31G", "DNA 1": "CAATCTGAATTCCGGTCTCCC", "DNA 2": "TGGTGGCTACGACGGGATT"}, "B16": {"name": "ACCACGC (DNA:RNA)", "RNA": "B1 RNA with C25A, G26C, C28A, A30G", "DNA 1": "CAATCTGAATTCCGGTCTCCC", "DNA 2": "TGGTGGCTACGACGGGATT"}, "B17": {"name": "UAAUGUC (DNA:RNA)", "RNA": "B7 RNA with U26A, A28U, G30U, G31C", "DNA 1": "CAATCTGAATTCCGGTCTCCC", "DNA 2": "TGGTGGCTACGACGGGATT"}, "B18": {"name": "GUUCAAC (DNA:RNA)", "RNA": "B1 RNA with C25G, G26U, C27U, C29A", "DNA 1": "CAATCTGAATTCCGGTCTCCC", "DNA 2": "TGGTGGCTACGACGGGATT"}, "B19": {"name": "AAAUAUG (DNA:RNA)", "RNA": "B7 RNA with U25A, U26A, A28U, G29A, G30U", "DNA 1": "CAATCTGAATTCCGGTCTCCC", "DNA 2": "TGGTGGCTACGACGGGATT"}, "B20": {"name": "UCCUCUC (DNA:RNA)", "RNA": "B1 RNA with C25U, G26C, C28U, A30U", "DNA 1": "CAATCTGAATTCCGGTCTCCC", "DNA 2": "TGGTGGCTACGACGGGATT"}, "B21": {"name": "GUCGGUU (DNA:RNA)", "RNA": "B7 RNA with U25G, A27C, A28G, G30U, G31U", "DNA 1": "CAATCTGAATTCCGGTCTCCC", "DNA 2": "TGGTGGCTACGACGGGATT"}, "B22": {"name": "CGGGGAA (DNA:RNA)", "RNA": "B1 RNA with C27G, C28G, C29G, C31A", "DNA 1": "CAATCTGAATTCCGGTCTCCC", "DNA 2": "TGGTGGCTACGACGGGATT"}, "B23": {"name": "AGCGUUC (DNA:RNA)", "RNA": "B1 RNA with C25A, C28G, C29U, A30U", "DNA 1": "CAATCTGAATTCCGGTCTCCC", "DNA 2": "TGGTGGCTACGACGGGATT"}, "B24": {"name": "UCACGCA (DNA:RNA)", "RNA": "B7 RNA with U26C, A28C, G30C, G31A", "DNA 1": "CAATCTGAATTCCGGTCTCCC", "DNA 2": "TGGTGGCTACGACGGGATT"}, "B25": {"name": "UCCAUUC (DNA:RNA)", "RNA": "B1 RNA with C25U, G26C, C28A, C29U, A30U", "DNA 1": "CAATCTGAATTCCGGTCTCCC", "DNA 2": "TGGTGGCTACGACGGGATT"}, "B26": {"name": "UAUGGCU (DNA:RNA)", "RNA": "B7 RNA with U26A, A27U, A28G, G30C, G31U", "DNA 1": "CAATCTGAATTCCGGTCTCCC", "DNA 2": "TGGTGGCTACGACGGGATT"}, "B27": {"name": "CUCUGUA (DNA:RNA)", "RNA": "B1 RNA with G26U, C28U, C29G, A30U, C31A", "DNA 1": "CAATCTGAATTCCGGTCTCCC", "DNA 2": "TGGTGGCTACGACGGGATT"}, "B28": {"name": "UCAUGAU (DNA:RNA)", "RNA": "B7 RNA with U26C, A28U, G30A, G31U", "DNA 1": "CAATCTGAATTCCGGTCTCCC", "DNA 2": "TGGTGGCTACGACGGGATT"}, "B29": {"name": "UAAGAUC (DNA:RNA)", "RNA": "B7 RNA with U26A, A28G, G29A, G30U, G31C", "DNA 1": "CAATCTGAATTCCGGTCTCCC", "DNA 2": "TGGTGGCTACGACGGGATT"}, "B30": {"name": "UGUCAGG (DNA:RNA)", "RNA": "B7 RNA with U26G, A27U, A28C, G29A", "DNA 1": "CAATCTGAATTCCGGTCTCCC", "DNA 2": "TGGTGGCTACGACGGGATT"}, "B31": {"name": "CACUUCC (DNA:RNA)", "RNA": "B1 RNA with G26A, C28U, C29U, A30C", "DNA 1": "CAATCTGAATTCCGGTCTCCC", "DNA 2": "TGGTGGCTACGACGGGATT"}}, "note": "Numbering of substitutions follows the chain as printed; changes in the protein carry UniProt numbers. The list shows a part of the results."}
{"target": "T1, RBFOX1 RRM (Homo sapiens, UniProt Q9NWB1 109-208)", "T1 sequence": "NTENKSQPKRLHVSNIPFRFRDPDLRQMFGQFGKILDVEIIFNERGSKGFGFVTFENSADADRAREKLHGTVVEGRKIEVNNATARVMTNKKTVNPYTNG", "assay": "EMSA; HiTS-Eq, 1 nM pool, 10 min; buffer printed only for the single-RNA assays: 10 mM Tris pH 7.5, 150 mM NaCl, 3.4 mM EDTA, 0.001% NP-40, 30 C", "settings": "tags: His6 N-terminal (pET28a); label: 5' 32P", "method_in_brief": "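A pool of RNA with 7 randomized nucleotides, 5′-radiolabelled and with DNA-annealed flanks, was equilibrated at 1 nM for 10 min in 50 µL with purified RbFox RRM, wild type or mutant, across increasing protein concentrations. Free RNA was separated by 8% native PAGE, excised, reverse-transcribed, barcoded by PCR and sequenced. Relative association constants were obtained from read-count changes of each RNA species versus the control reaction and normalised to the cognate motif.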"}
{"binder": "B1", "binding signal": "0.00346 KA relative to UGCAUGU"}
{"binder": "B2", "binding signal": "0.0103 KA relative to UGCAUGU"}
{"binder": "B3", "binding signal": "0.00726 KA relative to UGCAUGU"}
{"binder": "B4", "binding signal": "0.000316 KA relative to UGCAUGU"}
{"binder": "B5", "binding signal": "0.0237 KA relative to UGCAUGU"}
{"binder": "B6", "binding signal": "0.00109 KA relative to UGCAUGU"}
{"binder": "B7", "binding signal": "0.00125 KA relative to UGCAUGU"}
{"binder": "B8", "binding signal": "0.00615 KA relative to UGCAUGU"}
{"binder": "B9", "binding signal": "0.00965 KA relative to UGCAUGU"}
{"binder": "B10", "binding signal": "0.0195 KA relative to UGCAUGU"}
{"binder": "B11", "binding signal": "0.0104 KA relative to UGCAUGU"}
{"binder": "B12", "binding signal": "0.0231 KA relative to UGCAUGU"}
{"binder": "B13", "binding signal": "0.00241 KA relative to UGCAUGU"}
{"binder": "B14", "binding signal": "0.00693 KA relative to UGCAUGU"}
{"binder": "B15", "binding signal": "0.0257 KA relative to UGCAUGU"}
{"binder": "B16", "binding signal": "0.000829 KA relative to UGCAUGU"}
{"binder": "B17", "binding signal": "0.0138 KA relative to UGCAUGU"}
{"binder": "B18", "binding signal": "0.00855 KA relative to UGCAUGU"}
{"binder": "B19", "binding signal": "0.00609 KA relative to UGCAUGU"}
{"binder": "B20", "binding signal": "0.0047 KA relative to UGCAUGU"}
{"binder": "B21", "binding signal": "0.0211 KA relative to UGCAUGU"}
{"binder": "B22", "binding signal": "0.0229 KA relative to UGCAUGU"}
{"binder": "B23", "binding signal": "0.0128 KA relative to UGCAUGU"}
{"binder": "B24", "binding signal": "0.00861 KA relative to UGCAUGU"}
{"binder": "B25", "binding signal": "0.00425 KA relative to UGCAUGU"}
{"binder": "B26", "binding signal": "0.0165 KA relative to UGCAUGU"}
{"binder": "B27", "binding signal": "0.00714 KA relative to UGCAUGU"}
{"binder": "B28", "binding signal": "0.0088 KA relative to UGCAUGU"}
{"binder": "B29", "binding signal": "0.0118 KA relative to UGCAUGU"}
{"binder": "B30", "binding signal": "0.0119 KA relative to UGCAUGU"}
{"binder": "B31", "binding signal": "0.00267 KA relative to UGCAUGU"}
